Experimental data: PubChem BioAssay AID686978 (National Center for Advancing Translational Sciences (NCATS), 2013)
Where “and” joins values, the source holds several entries; their conditions need not be identical. Equal values may be shown once. Out of some 420,000 compounds screened, about 64,000 (15%) were called active. Inconclusive means that the source gave no clear call. Such entries were picked first, then a sample of the others. Calls come from the whole dose curve; as a rule, active = well fitted inhibition curve with a large enough effect; inconclusive = small, poorly fitted or top-dose-only effect; inactive = flat fitted curve, though single readings scatter. Where the call is inconclusive, the potency comes from a doubtful curve fit.

assay: qHTS for Inhibitors of human tyrosyl-DNA phosphodiesterase 1 (TDP1): qHTS in cells in absence of CPT; settings: DT40 Tdp1-/- hTDP1 cells, no CPT, ATP luminescence, 48 h; activity change, negative = growth inhibition: at 46.2 µM (top of the series) unless noted; note: nearly all actives have a fitted effect of over 55% in size
In short: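 Compound effects on proliferation are scored in DT40 Tdp1-/-;hTDP1 cells in the absence of CPT. ATP levels (CellTiter-Glo luminescence) are recorded after a ≥48 hr, 37 °C incubation.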
% is set by controls: 0 for no effect and ±100 for the full control effect; potency is the fitted concentration of half-maximal effect; tags give direction and shape of the fitted curve.

| SMILES | Potency | activity change, negative = growth inhibition |
| --- | --- | --- |
| COc1ccc(NC(=O)CN(C)CC(=O)Nc2ccc(C)c(S(=O)(=O)N3CCCCC3)c2)cc1 | inconclusive: 20.6 µM [inhibitor, single point] |  |
| CCOc1ccccc1NC(=O)Cn1c(=O)n(C(C)C)c(=O)c2oc3ccccc3c21 | inconclusive: 16.4 µM [inhibitor, single point] |  |
| COCCC1CCCCN1Cc1nc(N2CCCC2)c2cc(OC)c(OC)cc2n1 (stereo not given) | inconclusive: 23.1 µM [inhibitor, single point] |  |
| CCNC(=O)C1(C)CCCN(C(=O)c2cc(-c3ccccc3)cs2)C1 (stereo not given) | inconclusive: 14.6 µM [inhibitor, single point] |  |
| CCOc1ccc(N(Cc2ccc(OC)cc2)C(=O)c2ccco2)cc1 | inconclusive: 29.1 µM [inhibitor, single point] |  |
| COc1ccc(/C=N/n2c(N)c(S(=O)(=O)c3cccs3)c3nc4ccccc4nc32)cc1OC |  | inactive: -19.7% |
| O=C(NCCN1CCOCC1)c1cc2cc([N+](=O)[O-])ccc2s1 |  | inconclusive: -34.3% [inhibitor] |
| O=S(=O)(c1ccccc1)N1N=C(c2cccs2)CC1c1ccc(F)cc1 (stereo not given) | inconclusive: 29.1 µM [inhibitor, single point] |  |
| Cc1c(NS(=O)(=O)c2cccc(C(=O)OCC(=O)c3ccc(Cl)cc3)c2)c(=O)n(-c2ccccc2)n1C |  | inactive: -12.3% |
| COCCn1c(C)cc(O)c(C(c2ccc(F)cc2)N2CCC(C)CC2)c1=O (stereo not given) |  | inactive: 6.57% |
| O=C(O)CC1(CC(=O)Nc2cccc(C(F)(F)F)c2)CCCC1 |  | inactive: -12.9% |
| COc1ccc(-n2c(=O)c3ccc(C(=O)NCc4ccc(C)cc4)cc3n(Cc3ccc(Cl)cc3)c2=O)cc1 |  | inactive: -8.92% |
| CCOC(=O)N1CCN(C(=O)CSC2=NS(=O)(=O)c3ccccc3N2)CC1 |  | inactive: -8.46% |
| CN1CCN(/C=N/c2c(C#N)cnn2-c2ccccc2)CC1 |  | inactive: -24.3% |
| CCOC(=O)c1c(NC(=O)CN2C(=O)NC3(CCC(C)CC3)C2=O)sc(C)c1-c1ccc(C)cc1 (stereo not given) | active: 18.4 µM |  |
| CCCNC(=S)Nc1ccc(S(N)(=O)=O)cc1 |  | inconclusive: -31.7% [inhibitor] |
| COc1ccc(C(=O)/C=C/Nc2ccc([N+](=O)[O-])cc2)cc1 |  | inactive: -1.73% |
| O=[N+]([O-])c1ccccc1S(=O)(=O)Nc1cccc2cccnc12 | active: 2 µM and active: 2.59 µM |  |
| CCC1(C)Cc2c(sc3nc4n(c(=O)c23)CCCS4)CO1 (stereo not given) | inconclusive: 11.6 µM [inhibitor, partial curve, poor fit] |  |
| CCCN(CCC)c1ccc(CC(=O)NC(C)Cc2ccccc2)cc1 (stereo not given) |  | inconclusive: -31.7% [inhibitor] |
| CCCCNC(=O)c1cccc(S(=O)(=O)N2CC3(C)CC2CC(C)(C)C3)c1 (stereo not given) | inconclusive: 29.1 µM [inhibitor, single point] |  |
| O=C(Nc1nccs1)C1CC(=O)N(CCc2ccccc2)C1 (stereo not given) |  | inactive: -1.8% |
| Cc1nn(C)c(C)c1NC(=O)CSc1nc(Cc2ccccc2)nc2c1cnn2-c1ccccc1 | inconclusive: 13 µM [inhibitor, partial curve] |  |

| SMILES | Potency | activity change, negative = growth inhibition |
| --- | --- | --- |
| Cc1ccc(NS(=O)(=O)c2cccc3cccnc23)cc1Cl | inconclusive: 29.1 µM [inhibitor, single point] |  |
| Cc1ccc(NC(=O)COC(=O)c2ccc3c(c2)OCO3)cc1S(=O)(=O)N1CCCCC1 | inconclusive: 9.2 µM [inhibitor, partial curve, poor fit] |  |
| CCCc1cc(=O)[nH]c(SCC(=O)Nc2nonc2N)n1 |  | inactive: -12% |
| COc1cccc(C2CCCN2Cc2nc(CCC(C)C)no2)c1 (stereo not given) | inconclusive: 18.4 µM [inhibitor, partial curve, poor fit] |  |
| O=C(c1ccc(Br)c(S(=O)(=O)N2CCOCC2)c1)N1CCN(C/C=C/c2ccccc2)CC1 | inconclusive: 23.1 µM [inhibitor, single point] |  |
| Cn1c(=O)c2c(SCC(=O)N3CCCC3)nc(CC(C)(C)C)nc2n(C)c1=O | inconclusive: 23.1 µM [inhibitor, single point] |  |
| COc1ccc(CNC(=O)C(OC(=O)c2cccs2)C(C)C)cc1 (stereo not given) | inconclusive: 29.1 µM [inhibitor, single point] |  |
| O=C(Nc1ccc([N+](=O)[O-])cc1)C(Cc1ccccc1)N1C(=O)c2cccc3cccc(c23)C1=O (stereo not given) | active: 5.17 µM |  |
| Cc1ccc(-c2cn(-c3ccccc3)c(SCC(N)=O)n2)cc1C |  | inactive: -23.6% |
| CC(=O)N/C(=N/c1nc(C)cc(C)n1)Nc1ccc(F)cc1F |  | inconclusive: -36.4% [inhibitor] |
| COC(=O)c1ccc([C@H](NC(=O)c2ccco2)[C@]2(C)C[C@H]2C2CCCCC2)cc1 | inconclusive: 16.4 µM [inhibitor, partial curve] |  |
| CCc1nc2ccc(C(=O)NCCN3CCOCC3)cn2c1N(C)Cc1ccc(OC)cc1 | active: 23.1 µM |  |
| O=C(NCCO)N1c2ccccc2Sc2ccccc21 |  | inactive: 5.38% |
| CCOc1ccc(N(CC(=O)NCCc2ccc(Cl)cc2)S(=O)(=O)c2c(C)[nH]c(=O)[nH]c2=O)cc1 |  | inactive: 0.733% |
| Cc1nn(C)cc1CNC(=O)c1cnn2c(C(F)F)cc(C3CC3)nc12 | inconclusive: 16.4 µM [inhibitor, single point] |  |
| CCNc1oc(/C=C/c2ccc(OCC)cc2)nc1C#N | active: 8.2 µM |  |
| CC1=C(C(=O)OC2CCCC2)C(c2ccccc2C(F)(F)F)CC(=O)N1 (stereo not given) | active: 14.6 µM |  |
| O=S(=O)(c1ccc(-c2cnc(C3CC3)o2)cc1)N1CCN(c2ccccc2)CC1 | inactive and inconclusive: 18.4 µM [inhibitor, partial curve, poor fit] |  |
| CC(=O)c1ccc(NC(=O)CN2C(=O)COc3ccc(Cl)cc32)cc1 |  | inconclusive: -30.6% [inhibitor] |
| COc1cccc(NC(=O)Cn2c(=O)n(-c3ccccc3)c(=O)c3c2c2cc(OC)ccc2n3C)c1 |  | inactive: -9.37% |
| CSc1ccccc1NC(=O)CN(C)Cc1cccc(Cl)c1 | inconclusive: 29.1 µM [inhibitor, single point] |  |
| Cc1ccc(OCC(=O)Nc2cccc(C(=O)OCc3cc(=O)n4c(C)csc4n3)c2)cc1 | inconclusive: 20.6 µM [inhibitor, single point] |  |
